Measured values taken from publication PMC9917443 (eLife, 2023).

Molecular target: GB1a/2 receptors (Homo sapiens, UniProt O75899+Q9UBS5)
Test: SRE-luciferase accumulation assay (Gαqi/PLC) in HEK293T-Gαqi cells
Details: GB1a/2; for Span (best-fit): Std. Error r39; for HillSlope of GABA curve (best-fit): Std. Error r38, 95% CI r44
[1] = GABA curve with 1μM peptide, one curve for all data sets
[2] = GABA curve with 10μM peptide, one curve for all data sets

GB1a/2 receptors, sequence (Q9UBS5 15-961 limits assumed): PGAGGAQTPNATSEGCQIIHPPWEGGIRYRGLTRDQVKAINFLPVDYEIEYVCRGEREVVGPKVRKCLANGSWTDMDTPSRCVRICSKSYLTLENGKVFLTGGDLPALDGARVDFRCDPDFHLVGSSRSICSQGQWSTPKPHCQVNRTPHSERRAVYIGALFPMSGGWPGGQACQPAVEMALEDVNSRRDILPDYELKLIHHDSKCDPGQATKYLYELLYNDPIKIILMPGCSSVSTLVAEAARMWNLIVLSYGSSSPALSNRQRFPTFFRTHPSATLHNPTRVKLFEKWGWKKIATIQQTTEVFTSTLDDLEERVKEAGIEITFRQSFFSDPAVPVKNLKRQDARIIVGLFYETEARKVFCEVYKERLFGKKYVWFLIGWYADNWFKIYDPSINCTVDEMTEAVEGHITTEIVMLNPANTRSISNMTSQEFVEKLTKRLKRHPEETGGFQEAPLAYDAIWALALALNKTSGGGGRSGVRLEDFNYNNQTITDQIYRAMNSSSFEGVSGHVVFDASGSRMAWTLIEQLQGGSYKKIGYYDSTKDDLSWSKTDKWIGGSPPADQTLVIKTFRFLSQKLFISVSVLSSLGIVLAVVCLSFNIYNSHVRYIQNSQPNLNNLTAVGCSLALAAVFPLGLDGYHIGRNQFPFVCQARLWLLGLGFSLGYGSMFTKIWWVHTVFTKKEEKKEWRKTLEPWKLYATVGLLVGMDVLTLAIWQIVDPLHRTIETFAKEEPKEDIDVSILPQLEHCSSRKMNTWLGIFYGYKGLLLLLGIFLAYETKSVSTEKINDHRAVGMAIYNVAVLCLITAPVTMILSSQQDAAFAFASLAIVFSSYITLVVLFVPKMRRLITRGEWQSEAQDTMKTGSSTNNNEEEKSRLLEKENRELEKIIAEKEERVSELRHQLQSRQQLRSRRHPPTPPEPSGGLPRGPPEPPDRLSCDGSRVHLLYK
GB1a/2 receptors, sequence (O75899 42-941 partner): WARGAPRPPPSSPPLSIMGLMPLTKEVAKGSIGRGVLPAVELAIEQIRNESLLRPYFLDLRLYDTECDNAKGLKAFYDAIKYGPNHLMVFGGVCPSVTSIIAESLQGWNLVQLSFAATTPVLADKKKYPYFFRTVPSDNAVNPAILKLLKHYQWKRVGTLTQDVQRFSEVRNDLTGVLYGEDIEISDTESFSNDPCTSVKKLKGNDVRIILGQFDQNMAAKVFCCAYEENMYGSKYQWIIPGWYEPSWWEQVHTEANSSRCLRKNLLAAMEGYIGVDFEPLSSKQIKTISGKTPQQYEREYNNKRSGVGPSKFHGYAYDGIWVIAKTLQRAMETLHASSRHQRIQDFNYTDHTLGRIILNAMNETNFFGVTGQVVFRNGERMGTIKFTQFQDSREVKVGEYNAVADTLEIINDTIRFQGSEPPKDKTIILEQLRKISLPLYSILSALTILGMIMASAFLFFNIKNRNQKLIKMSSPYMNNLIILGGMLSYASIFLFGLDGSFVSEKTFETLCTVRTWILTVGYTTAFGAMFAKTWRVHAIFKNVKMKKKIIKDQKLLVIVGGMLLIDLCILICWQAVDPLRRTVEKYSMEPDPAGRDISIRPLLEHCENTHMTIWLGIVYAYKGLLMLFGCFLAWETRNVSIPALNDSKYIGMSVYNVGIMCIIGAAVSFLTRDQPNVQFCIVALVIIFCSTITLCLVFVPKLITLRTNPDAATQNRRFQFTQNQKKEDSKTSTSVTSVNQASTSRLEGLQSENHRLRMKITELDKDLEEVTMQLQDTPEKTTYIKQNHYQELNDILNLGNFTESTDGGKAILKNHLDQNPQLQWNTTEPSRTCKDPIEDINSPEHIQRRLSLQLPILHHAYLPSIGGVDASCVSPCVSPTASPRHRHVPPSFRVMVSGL

Substance: Ac-DDSDVWWGGADTDYADG-NH2 [APP17]
- Span (best-fit) (GABA curve with 1μM peptide, different curve for each data set): 0.701
- Bottom (shared fit) [1]: 0.2985
- Top (shared fit) [1]: 0.9909
- Span (best-fit) (GABA curve with 10μM peptide, different curve for each data set): 0.6701
- Bottom (shared fit) [2]: 0.2985
- Top (shared fit) [2]: 0.9909
- LogEC50 of GABA (best-fit) (Log [GABA] (M), with 1μM peptide, different curve for each data set, Std. Error r37, 95% CI r43): -6.522
- LogEC50 of GABA (shared fit) (Log [GABA] (M), with 1μM peptide, one curve for all data sets): -6.483
- LogEC50 of GABA (shared fit) (Log [GABA] (M), with 10μM peptide, one curve for all data sets): -6.483
- HillSlope of GABA curve (best-fit) (with 1μM peptide, different curve for each data set): 1.208
- HillSlope of GABA curve (best-fit) (with 10μM peptide, different curve for each data set): 0.9672
- HillSlope of GABA curve (shared fit) (with 10μM peptide, one curve for all data sets): 1.133
